Data taken from ChEMBL document CHEMBL4888484, “Replenishing the malaria drug discovery pipeline: Screening and hit evaluation of the MMV Hit Generation Library 1 (HGL1) against asexual blood stage Plasmodium falciparum ,using a nano luciferase reporter read-out” (2022).
The whole screen tested about 150,000 compounds, of which about 540 (0.36%) showed an effect of 50% or more. The list shows a part of the results.

test system: Plasmodium falciparum; test: Primary screen in NF54 nanoGlo assay, in single point, at 2uM, 72h; a lower Z score goes with more inhibition; type: functional, Erythrocyte; conditions: timepoint 72 hour

SMILES | % Inhibition [%] | Z score
O=C(c1coc(COc2ccccc2F)n1)N1CCS(=O)(=O)CC1 | -11 | 1.08
COC[C@H](C)Nc1cnn(-c2ncc(Cl)cc2Cl)c1 | -14 | 2.12
O=C(O)c1cccnc1N1CCC(OCc2ccc(F)cc2)CC1 | -2 | 0.2
Cc1ccc(C)c(NC(=O)C2CCN(S(=O)(=O)c3cc(C(=O)N4CCOCC4)cs3)CC2)c1 | -7 | 1.11
C[C@H]1CN(C(=O)c2cccc(-n3ccnc3)c2)CC(C)(C)O1 | -13 | 1.27
CNc1nc(-c2cccc(C(=O)NCCCn3cc(C)cn3)c2)ncc1F | -11 | 1.84
CC(C)N1CC[C@H](NCCc2ccccc2)C1 | -6 | 0.77
CCN(CC)c1ccc(CN(CCOC)C(=O)COC)c(OS(=O)(=O)CC)c1 | 0 | 0.01
Cc1nc2scc(C3CC3)n2c1CN[C@H](CCO)c1ccccc1 | 11 | -1.52
C=CCOc1cc(NC(C)=O)c(Br)cc1Br | 5 | -0.87
CC1CC1C(=O)N1CCc2cc(C(=O)O)ccc21 (stereo not given) | 1 | -0.17
O=C([C@@H]1CCCN1c1ncnc2ccccc12)N1CCc2sccc2C1 | -11 | 1.2
Fc1cncnc1N1CCC(COc2cc3c(nn2)CCC3)CC1 | -18 | 2.09
Cc1oc2c(c1C(=O)NCCC1CCN(C)CC1)CN(Cc1ccc(F)cc1)CC2 | -9 | 0.88
COCCCNC(=O)[C@]1(C)Cn2nc(-c3ccccc3)cc2C(=O)N1c1ccc(C)cc1C | 1 | -0.17
CC[C@H](C)NC(=O)c1cc(C)n(CCN2CCCC2)c1C | -11 | 2.16
O=C(NCCN1CCCCC1)c1ccc(-c2cccs2)nc1 | -8 | 1.51
CC(C)c1c(C2CCN(C(=O)c3cc4ccccc4[nH]3)CC2)noc1N | -10 | 1.62
COc1cnc(N2CCC(n3ccnc3)CC2)nc1N1CCC(n2ccnc2)CC1 | -4 | 0.4
CCn1cnc2c(NCCc3ccc4[nH]ncc4c3)ncnc21 | -4 | 0.48
O=c1n(Cc2ccccn2)nc2c(-c3nc(-c4ccc(Cl)cc4)no3)cccn12 | -12 | 1.89
CC(C)CN1CCC[C@H]1c1nc(-c2cc(O)ncn2)no1 | -3 | 0.44

SMILES | % Inhibition [%] | Z score
Cc1ccccc1-n1nc(C(=O)NC2CCCCC2)nc1CCc1ccccc1 | -1 | 0.11
COC(=O)[C@@H]1C[C@@H](NC(=O)C(c2ccccc2)c2ccccc2)CN1 | 1 | -0.17
N#CC1CCN(c2cc([C@H]3CCOC3)nc(N)n2)CC1 | 10 | -1.35
CCC[C@H](C)C(=O)NCC1CCOCC1 | -12 | 2.09
O=C(CN1CCC[C@@H]1Cc1cccc2ccccc12)NC1CC1 | 1 | -0.04
CCCNC(=O)N1CC[C@@H]2[C@H]1C(=O)N(c1cccc(F)c1)C(=O)N2Cc1cccs1 | -4 | 0.46
CCn1nccc1C(=O)N1CCC[C@H](Cc2nncn2CC2CC2)C1 | -8 | 1.09
Cc1cc(N)n(CC(=O)N[C@H]2COCC[C@@H]2Oc2ccc(C(N)=O)cc2)n1 | -6 | 0.82
O=C1CC[C@@H]2CN(c3cnccn3)CC[C@@H]2N1CCCn1ccnc1 | 0 | 0.02
O=C(CNC(=O)Nc1cccnc1)Nc1cccc2ccccc12 | -1 | 0.16
Cc1nccn1CCC(=O)N[C@H](c1nccn1C)C1CC1 | 7 | -1.47
Cc1nccn1CCn1c(=O)n(CC2CC2)c2ccc(C(=O)O)cc21 | -17 | 2.09
C[C@H](OC(=O)c1cn(-c2ccccc2Cl)nn1)c1cnc2ccccc2c1 | -1 | 0.17
C[C@H](NS(C)(=O)=O)c1ncnn1-c1ccc(C(F)(F)F)cc1 | 10 | -1.38
CC(C)(C)[C@H](NS(=O)(=O)c1cccc(Br)c1)C(N)=O | -11 | 2.02
O=C(NCCCNC(=O)C1CCC1)Nc1ccncc1F | 4 | -0.74
COc1ccc(NC(=O)c2ccc(N[C@@H](C)C(=O)N3CCOCC3)cc2)cc1 | -12 | 1.01
CCN(Cc1noc(CC(C)C)n1)C(=O)c1cccnc1OC | -2 | 0.31
Cc1nc(C2CC2)ncc1C(=O)NC[C@@H](c1ccco1)N1CCCC1 | -20 | 2.44
C[C@H](N(C)C(=O)NC1CCC(O)CC1)C(C)(C)C (stereo not given in full) | -1 | 0.19
COc1ccc(NC(=O)c2ccc(-n3nc(C)c(-c4ccc(F)cc4)c3NC(C)=O)cc2)cc1 | 10 | -1.17
CCN(C(=O)c1ccc2[nH]c3c(c2c1)CCCC3)[C@H]1CCS(=O)(=O)C1 | -13 | 2.43

SMILES | % Inhibition [%] | Z score
O=C(NCc1ccc(Cl)cc1)c1cccnc1O[C@H]1CCOC1 | -3 | 0.64
COc1cc(OC)cc(C(=O)N[C@@H](c2cccnc2)c2cc(C)ccc2C)c1 | 4 | -0.5
CN1CCC(O)(c2ccc3c(c2)CN(Cc2c(F)ccc(F)c2F)CCO3)CC1 | -3 | 0.5
CC(C)(CO)[C@H](CNC(=O)c1cccc(OCc2cccs2)c1)c1ccccc1 | -11 | 1.79
CCn1cc(CN2CCCCCC2)ccc1=O | -2 | 0.21
CCCn1ncc(C(=O)N2CC[C@H](c3sccc3C)[C@@H](O)C2)c1C | 5 | -0.68
CCC(CC)C(=O)NCc1ccc(Cl)cc1 | -6 | 0.81
CCC(CC)(CC(=O)Nc1ccc(-n2ncn(C)c2=O)cc1)C(=O)O | -9 | 1.05
CC(C)n1ncc2c1CC(NC(=O)CCC1CCCO1)CC2 (stereo not given) | -3 | 0.62
COc1cc([C@H]2C(=O)N(C3CCCCC3)CC(=O)N2Cc2ccco2)ccc1OC(C)C | -9 | 1.41
CCCc1cc(CNc2nc3ccccc3o2)on1 | 0 | 0
C[C@H]1CCCN(S(=O)(=O)NCCc2nnc3ccccn23)C1 | -8 | 1.09
CC1CC(NC2CCS(=O)(=O)C2)CN(Cc2ccccc2)C1 (stereo not given) | -6 | 0.82
Cc1nn(CC(=O)n2nc(C)c(Br)c2C)c(C)c1Cl | -28 | 3.31
O=C1NCCN1C(=O)NCc1cncc(-c2ccoc2)c1 | -8 | 1.35
CCOc1ccc(CNC(=O)[C@H]2CCc3[nH]c(C)nc3C2)cc1Cl | 0 | 0.02
CC1CCCC(C)C1NC(=O)c1ccc(C#N)[nH]1 (stereo not given) | 1 | -0.13
COc1cccc(CN2CC3(CCN(C(=O)Cn4ccnc4)CC3)CC2=O)c1 | -9 | 1.78
COc1ccccc1OCC(=O)Nc1cc(C)nn1-c1nc2c(c(=O)[nH]1)CCC2 | 1 | -0.14
CC(C)OCC(=O)Nc1ccn(CCCn2ccnc2)n1 | -7 | 1.24
O=C(Cc1ccsc1)N1CC[C@H](Oc2cc(N3CCCC3)ncn2)C1 | 4 | -0.5
CC(C)O[C@H]1C[C@@H](NC(=O)NC2CCOCC2C)C1 (stereo not given in full) | 0 | 0

SMILES | % Inhibition [%] | Z score
O=C(CC1=Nc2ccccc2S(=O)(=O)N1)N1CCN(c2ccccc2F)CC1 | 1 | -0.12
Cc1c(NC(=O)N(C)CCC[C@H]2CCCO2)cccc1N1CCCC1 | 5 | -0.68
CCNc1nc(C)c(C(=O)N2CCC3(CC2)C(=O)N(C)c2ccccc23)s1 | -5 | 0.91
COC(=O)[C@@H]1Cc2nc[nH]c2CN1Cc1c[nH]nc1-c1ccc(F)cc1 | -12 | 1.66
Cc1cnc(C2CCN(c3ccc(S(N)(=O)=O)cc3C(=O)O)CC2)s1 | -4 | 0.49
CC[C@H](NC(=O)Nc1cccc(Cl)c1OC)c1nccs1 | -5 | 1.01
CCCC[C@H](CC)CNC(=O)c1ccc(Cl)cc1 | -6 | 0.69
CC1CC(Nc2ncnc3cc(Br)ccc23)CCN1C (stereo not given) | 97 | -8.72
CCCC(=O)N1CCN(c2cc(-n3cnc(C)c3C)ncn2)CC1 | -12 | 1.96
Fc1ccccc1OC/C=C/CN1CCNCC1 | -9 | 0.98
COc1ccccc1-c1noc(-c2cn(CC3(C)COC3)nn2)n1 | -7 | 1.34
CCc1nc(C)c(-c2nccn2C2CCN(Cc3ccccc3)CC2)[nH]1 | -1 | 0.13
CC[C@H](NC(=O)Cn1cnnn1)c1nccs1 | -7 | 0.82
Cc1cccc(-c2nc3cc(Cl)ccc3cc2CN(CCCN2CCCC2=O)C(=O)c2csc(C)n2)c1 | 18 | -2.24
Cc1ccc2nc3n(c2c1)[C@@H](CNC(=O)c1ccccn1)COC3 | 11 | -1.46
COc1ccc(NC(=O)N2CC[C@]3(CCN(C)C3)C2)cc1OC | 4 | -0.47
COc1ccc(CN2CCN(c3cccc4c3C(=O)N(C[C@H]3CCCO3)C4=O)CC2)cc1C | -9 | 1.23
Cc1ccc(S(=O)(=O)N2CCN([C@H]3CCN(c4ccccc4)C3)CC2)cc1 | -8 | 0.82
CCCN(CC(=O)N1CCc2sccc2C1COc1cccc(OC)c1)CC(O)CC (stereo not given) | 6 | -0.55
